This is one part of the list. Rule as the data show it: active = 3.2 or more and inactive = the rest. Only a few entries rise above the background.
How the values were obtained:
Experiment in all cases: enrichment score (SH2-bound / input frequency) (ratio); bacterial display of known human phosphotyrosine sites (pTyr-Var adds point mutants) read by sequencing; higher = stronger binding; tyrosines were phosphorylated by kinases first
Settings in all cases: peptide library: pTyr-Var
[1] = target: SHP2 C-SH2 domain E139D
[2] = target: SHP2 C-SH2 domain wild-type
[3] = target: SHP2 N-SH2 domain L43F
[4] = target: SHP2 N-SH2 domain T42A
[5] = target: SHP2 N-SH2 domain T52S
[6] = target: SHP2 N-SH2 domain wild-type

Measured: enrichment score
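Also: displayed peptides selected on beads carrying the immobilized SH2 domain, with library peptides lacking any tyrosine serving as negative controls.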

B1: CPS1_Y1450 (peptide)
chain: FVHDNYVIRRT
inactive: [1] 0.361 | [2] 0.388 | [3] 0.399 | [4] 0.329 | [5] 0.427 | [6] 0.548

B2: CPS1_Y1491_Y1491H_YF (peptide)
chain: KSLFHHRQFSA
inactive: [1] 0.57 | [2] 0.567 | [3] 0.61 | [4] 0.517 | [5] 0.676 | [6] 0.568

B3: CPS1_Y634_R638P (peptide)
chain: WKEIEYEVVPD
inactive: [1] 0.574 | [2] 0.621 | [3] 0.483 | [4] 0.466 | [5] 0.569 | [6] 0.571

B4: CNOT3_Y746_R750Q (peptide)
chain: TFEYRYLEDQD
inactive: [1] 0.68 | [2] 0.597 | [3] 0.854 | [4] 0.714 | [5] 0.559 | [6] 0.551

B5: CPS1_Y1069_A1065E (peptide)
chain: LEVPLYKNGVK
inactive: [1] 0.813 | [2] 0.887 | [3] 0.798 | [4] 0.824 | [5] 0.519 | [6] 0.961

B6: CRACR2A_Y141 (peptide)
chain: HEEKVYLSRGD
inactive: [1] 0.723 | [2] 0.671 | [3] 0.792 | [4] 0.76 | [5] 0.685 | [6] 0.575

B7: COL4A1_Y348_P352L (peptide)
chain: KGERGYPGTLG
inactive: [1] 0.578 | [2] 0.517 | [3] 0.744 | [4] 0.575 | [5] 0.556 | [6] 0.637

B8: COL22A1_Y37 (peptide)
chain: CKSVHYDLVFL
inactive: [1] 0.93 | [2] 1.33 | [3] 0.988 | [4] 1.38 | [5] 0.999 | [6] 1.26

B9: CPS1_Y162 (peptide)
chain: KVPAIYGVDTR
inactive: [1] 0.814 | [2] 0.758 | [3] 0.664 | [4] 0.615 | [5] 0.93 | [6] 0.862

B10: COL8A2_Y648_T645I (peptide)
chain: PAIYTYDEYKK
inactive: [1] 0.833 | [2] 1 | [3] 0.97 | [4] 0.815 | [5] 0.687 | [6] 0.807

B11: COL6A3_Y524 (peptide)
chain: DGSALYTGSAL
inactive: [1] 0.704 | [2] 0.788 | [3] 0.557 | [4] 0.498 | [5] 0.761 | [6] 0.7

B12: CPS1_Y529_V531G (peptide)
chain: GVLKEYGGKVL
inactive: [1] 0.947 | [2] 0.945 | [3] 1.11 | [4] 0.899 | [5] 0.969 | [6] 1.2

B13: COL10A1_Y623 (peptide)
chain: GTPVMYTYDEY
inactive: [1] 0.805 | [2] 0.882 | [3] 1.18 | [4] 0.843 | [5] 0.832 | [6] 0.957

B14: CPT2_Y508 (peptide)
chain: RPASVYTKRCS
inactive: [1] 0.275 | [2] 0.338 | [3] 0.282 | [4] 0.38 | [5] 0.504 | [6] 0.325

B15: COL8A2_Y648_T645I_YF (peptide)
chain: PAIFTYDEFKK
inactive: [1] 0.775 | [2] 0.817 | [3] 0.881 | [4] 0.802 | [5] 1.05 | [6] 1.22

B16: COX10_Y97 (peptide)
chain: AKAEIYEMRPL
inactive: [1] 0.932 | [2] 0.778 | [3] 0.985 | [4] 0.758 | [5] 0.875 | [6] 0.955

B17: CNTN6_Y315_F314V (peptide)
chain: GQLIVYAPPEW
inactive: [1] 0.94 | [2] 0.906 | [3] 0.954 | [4] 2.01 | [5] 0.751 | [6] 0.864

B18: COL10A1_Y623_G618V (peptide)
chain: VTPVMYTYDEY
inactive: [1] 0.979 | [2] 0.911 | [3] 2.99 | [4] 1.15 | [5] 2.56 | [6] 0.974

B19: CPT2_Y217_M214T (peptide)
chain: LDTSQYFRLFN
inactive: [1] 0.776 | [2] 1.49 | [3] 0.784 | [4] 0.997 | [5] 0.733 | [6] 0.796

B20: CPS1_Y590_R587C (peptide)
chain: MICSAYALGGL
inactive: [1] 0.87 | [2] 1.04 | [3] 1.15 | [4] 0.751 | [5] 0.768 | [6] 0.84

B21: COL6A3_Y2827 (peptide)
chain: SENAFYLSPDI
inactive: [1] 0.751 | [2] 0.726 | [3] 0.741 | [4] 0.683 | [5] 0.571 | [6] 0.581

B22: CPO_Y278 (peptide)
chain: KYGTNYRVGSS
inactive: [1] 0.877 | [2] 0.792 | [3] 0.844 | [4] 0.668 | [5] 0.678 | [6] 0.89

B23: CPS1_Y529_G530V (peptide)
chain: GVLKEYVVKVL
inactive: [1] 1.59 | [2] 1.24 | [3] 1.3 | [4] 1.17 | [5] 1.34 | [6] 1.59

B24: COX7A2_Y44_E40D (peptide)
chain: DDIPLYLKGGV
inactive: [1] 0.705 | [2] 0.784 | [3] 0.662 | [4] 0.643 | [5] 0.645 | [6] 0.735

B25: CP_Y539_YF (peptide)
chain: CLAKMYFSAVD
inactive: [1] 1.25 | [2] 0.965 | [3] 1.05 | [4] 1.02 | [5] 1.23 | [6] 1.13

B26: COL6A3_Y2827_D2831H (peptide)
chain: SENAFYLSPHI
inactive: [1] 0.926 | [2] 0.769 | [3] 0.894 | [4] 0.681 | [5] 0.92 | [6] 0.879

B27: CPS1_Y872_K875E (peptide)
chain: IEKLTYIDEWF
inactive: [1] 0.901 | [2] 0.757 | [3] 1.16 | [4] 1 | [5] 1.01 | [6] 1

B28: CPXM2_Y427_E428K_YF (peptide)
chain: LNPDGYKKAFE
inactive: [1] 0.397 | [2] 0.894 | [3] 0.747 | [4] 1.02 | [5] 0.78 | [6] 0.709

B29: CPS1_Y1491_YF (peptide)
chain: KSLFHYRQFSA
inactive: [1] 0.63 | [2] 0.533 | [3] 0.457 | [4] 0.437 | [5] 0.383 | [6] 0.467

B30: COX4I1_Y38 (peptide)
chain: FSLPAYMDRRD
inactive: [1] 0.862 | [2] 0.688 | [3] 0.903 | [4] 0.691 | [5] 1.08 | [6] 0.919

B31: CNOT3_Y746_YF (peptide)
chain: TFEFRYLEDRD
inactive: [1] 1.11 | [2] 0.942 | [3] 1.01 | [4] 1.2 | [5] 1.24 | [6] 1.09

B32: CPS1_Y309_A304V (peptide)
chain: VGAKTYKMSMA
inactive: [1] 0.734 | [2] 0.937 | [3] 0.737 | [4] 0.813 | [5] 0.604 | [6] 0.727

B33: CPT2_Y508_P504L (peptide)
chain: RLASVYTKRCS
inactive: [1] 0.324 | [2] 0.476 | [3] 0.607 | [4] 0.424 | [5] 0.41 | [6] 0.536

B34: CPS1_Y768 (peptide)
chain: EPSLDYMVTKI
inactive: [1] 0.677 | [2] 0.726 | [3] 0.746 | [4] 0.678 | [5] 0.826 | [6] 1.19

B35: CPOX_Y429 (peptide)
chain: TARWEYMHSPS
inactive: [1] 0.625 | [2] 0.819 | [3] 0.528 | [4] 1.13 | [5] 0.824 | [6] 0.77

B36: CPS1_Y590_R587L (peptide)
chain: MILSAYALGGL
inactive: [1] 1.27 | [2] 1.59 | [3] 1.48 | [4] 1.33 | [5] 1.36 | [6] 1.49

B37: CPS1_Y529_V531E (peptide)
chain: GVLKEYGEKVL
inactive: [1] 0.935 | [2] 0.571 | [3] 0.701 | [4] 0.617 | [5] 0.721 | [6] 0.81

Reference: the supplement of paper PMC10369915
